Here are results for 60 molecules from article PMC4336329 (PLoS ONE, 2015).

Out of some 310,000 compounds screened, about 2,200 (0.71%) showed an effect of 50% or more. The effect is printed as a negative number. Some of the results follow.

human ether-à-go-go-related gene (hERG) potassium channel, sequence (Q12809 whole entry, looked up): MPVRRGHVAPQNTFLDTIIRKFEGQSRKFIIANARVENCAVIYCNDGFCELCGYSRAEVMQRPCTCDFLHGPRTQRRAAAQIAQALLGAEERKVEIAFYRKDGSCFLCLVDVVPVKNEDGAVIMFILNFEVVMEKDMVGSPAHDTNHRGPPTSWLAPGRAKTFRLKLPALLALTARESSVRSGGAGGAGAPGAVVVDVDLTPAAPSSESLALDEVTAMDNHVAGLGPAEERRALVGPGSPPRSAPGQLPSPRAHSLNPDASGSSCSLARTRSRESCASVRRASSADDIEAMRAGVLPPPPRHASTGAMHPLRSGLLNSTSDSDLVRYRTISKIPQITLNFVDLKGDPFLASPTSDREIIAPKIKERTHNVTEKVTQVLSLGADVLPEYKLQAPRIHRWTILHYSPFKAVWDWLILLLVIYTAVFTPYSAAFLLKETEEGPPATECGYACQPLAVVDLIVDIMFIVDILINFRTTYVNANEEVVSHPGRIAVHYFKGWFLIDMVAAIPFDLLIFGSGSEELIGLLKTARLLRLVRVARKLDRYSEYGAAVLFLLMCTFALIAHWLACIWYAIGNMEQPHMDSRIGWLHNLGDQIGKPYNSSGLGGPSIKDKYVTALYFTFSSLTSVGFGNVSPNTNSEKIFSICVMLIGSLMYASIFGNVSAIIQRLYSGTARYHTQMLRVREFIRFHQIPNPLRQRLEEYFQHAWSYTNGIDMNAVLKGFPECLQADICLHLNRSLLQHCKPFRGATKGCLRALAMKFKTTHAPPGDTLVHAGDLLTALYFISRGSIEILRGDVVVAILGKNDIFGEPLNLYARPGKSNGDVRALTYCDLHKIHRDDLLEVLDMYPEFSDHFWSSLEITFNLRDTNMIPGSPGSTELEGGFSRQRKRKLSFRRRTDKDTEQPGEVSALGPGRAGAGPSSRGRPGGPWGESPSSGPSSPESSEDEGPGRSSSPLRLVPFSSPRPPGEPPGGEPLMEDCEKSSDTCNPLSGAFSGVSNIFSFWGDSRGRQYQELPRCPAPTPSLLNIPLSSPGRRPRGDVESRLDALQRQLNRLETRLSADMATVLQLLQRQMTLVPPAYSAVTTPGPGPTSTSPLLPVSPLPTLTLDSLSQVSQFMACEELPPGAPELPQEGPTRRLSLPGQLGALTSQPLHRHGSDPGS

This assay addresses human ether-à-go-go-related gene (hERG) potassium channel (human, UniProt Q12809). The experiment in a line: primary screen, population patch clamp on CHO cells stably expressing hERG.
Regarding `CCOc1ccc(S(=O)(=O)NC(C)C(=O)NC2CCCC2)cc1` (stereo not drawn), the “hERG current change (%, negative = inhibition) at 1uM” value is on record as 14.7%.
The figure for `CS(=O)(=O)c1ccc(NC(=O)CCN2C(=O)C3CC=CCC3C2=O)cc1` (stereo not drawn) is 3.08%; for `Cc1ccc(C)c(C(=O)OCC(=O)Nc2cccc(S(=O)(=O)N3CCCCC3)c2)c1` it is 1.96%; for `COc1ccc(NC(=O)c2cccc(S(=O)(=O)N3CCc4ccccc43)c2)cn1` it is 13.2%.
Consider `O=C(O)c1cccnc1Cl`, for which the “hERG current change (%, negative = inhibition) at 1uM” value is recorded as 14.5%.
The figure for `CS(=O)(=NS(=O)(=O)c1ccc(Cl)cc1)c1ccccc1` (stereo not drawn) is 10.2%.
In the case of `COc1ccccc1Sc1ccccc1/C=N/NC(N)=O`, the “hERG current change (%, negative = inhibition) at 1uM” value turned out to be 15.9%.
To `COc1ccc(C(=S)N2CCN(C)CC2)cc1Br` belongs 1.54%; to `O=C(CSCCO)Nc1ccccc1`, 12.7%.
For the molecule `Cc1cccc(C)c1N1CCc2cn[nH]c21`, the “hERG current change (%, negative = inhibition) at 1uM” value was found to be 10.7%.
To `Cc1ccnc(SCC(=O)c2ccc(Br)s2)n1` belongs 10.3%.
To `O=c1cc(-c2ccncc2)oc2ccccc12` belongs 10.8%; to `COC(=O)c1cc(NC(=O)C2(S(=O)(=O)c3ccc(C)cc3)CC2)cc(C(=O)OC)c1`, 0.157%.
With `O=C(CSc1n[nH]c(-c2ccco2)n1)Nc1ccc(F)cc1`, the “hERG current change (%, negative = inhibition) at 1uM” value is on record as 14.8%.
To `COCc1c(C(=O)N/N=C(\C)c2ccc(Cl)s2)nnn1-c1nonc1N` belongs 14%; to `CC1CCCCC1NC(=O)CCCn1c(=S)[nH]c2ccccc2c1=O` (stereo not drawn), 8.65%; to `O=C(Nc1cccnc1Cl)c1cc2c(s1)-c1ccccc1OC2`, 3.37%.
To `CCOC(=O)c1cc(-c2ccc(C)o2)nn1CCC#N` belongs 17%; to `Cc1nc2ccc([N+](=O)[O-])cc2c(=O)n1Cc1ccccc1Br`, 4.69%; to `O=C(c1ccc2ccccc2n1)N1CCN(c2ccccn2)CC1`, 6.79%.
Take `Oc1ccc2cccnc2c1`: the “hERG current change (%, negative = inhibition) at 1uM” value is recorded as -0.778%.
Take `CCCC(c1nnnn1CS(=O)(=O)c1ccc(C)cc1)N1CCN(CC)CC1.Cl` (stereo not drawn): the “hERG current change (%, negative = inhibition) at 1uM” value turned out to be 6.04%.
For `COc1ccc2[nH]c(C)c(CCNC(=S)Nc3cc(C)cc(C)c3)c2c1`, the “hERG current change (%, negative = inhibition) at 1uM” value is on record as 18.3%.
As to `CC1(C)Cc2c(sc3nc(-c4cccs4)n(N)c(=O)c23)CO1`, the “hERG current change (%, negative = inhibition) at 1uM” value is listed as -2.65%.
To `CC1=C2[C@@H]3OC(=O)[C@H](C)C3CC[C@@]2(C)C=CC1=O` (stereo partly drawn) belongs 18.1%.
For the molecule `COc1cccc(N2C(=O)N(c3ccccc3Cl)C3CS(=O)(=O)CC32)c1` (stereo not drawn), the “hERG current change (%, negative = inhibition) at 1uM” value was determined as 4.36%.
To `Cc1cc2nc(-c3ccc[nH]c3=O)n(Cc3ccc(F)cc3)c2cc1C` belongs 8.99%; to `CC(C)(C)Cc1nnc(NS(C)(=O)=O)s1`, 1.35%.
To `CCOC(=O)c1ccc(NC(=O)C2CC(=O)Nc3nc4ccccc4n32)cc1` (stereo not drawn) belongs 3.77%; to `CSc1nc(-c2ccco2)nn1S(=O)(=O)c1ccc(C)cc1`, 3.34%; to `COC(=O)CCC(=O)OC1(C)C(=O)C=C2C=C(C3CC3)N(C3CCCCC3)C=C2C1=O` (stereo not drawn), 7.93%.
The figure for `CCOC(=O)CC(=O)NC(CC(=O)OC)c1ccc(Br)cc1` (stereo not drawn) is 10.2%; for `Cc1cc(C)c2c(n1)sc1c(N3CCCCC3)ncnc12` it is 12.9%.
Regarding `CC(C)CCn1c(SCC(=O)Nc2ccccc2C(F)(F)F)nc2nccnc2c1=O`, the “hERG current change (%, negative = inhibition) at 1uM” value is given as -1.4%.
The figure for `C=C1C(=O)O[C@@H]2C[C@@H](C)[C@@H]3C=CC(=O)[C@@]3(C)[C@@H](OC(C)=O)[C@H]12` is 8.9%; for `COc1ccc(OC(=O)Nc2ccccc2)cc1` it is 8.17%.
To `COC(=O)CN(c1ccccc1C)S(C)(=O)=O` belongs 20.6%; to `COC(=O)N1CCN(c2ccc(Cl)c(Cl)c2)CC1`, 12.8%; to `Cc1cc(NS(=O)(=O)c2ccc(NC(=O)COc3cc(C)c(Cl)c(C)c3)cc2)no1`, 10.7%.
To `O=C(CCC(=O)N1CCOc2ccc(Cl)cc21)NCCN1CCOCC1` belongs 14.2%; to `COCCNC(=O)c1ccc2ccccc2n1`, 7.91%.
As to `COCCN1C(=O)C(=O)/C(=C(/O)c2ccc(S(=O)(=O)N3CCOCC3)cc2)C1c1cccc(OC)c1` (stereo not drawn), the “hERG current change (%, negative = inhibition) at 1uM” value stood at 12.9%.
`Cc1nn(S(=O)(=O)c2ccc(F)cc2)c(C)c1S(=O)(=O)N1CCCCC1`: the “hERG current change (%, negative = inhibition) at 1uM” value came to 11.8%.
To `Cc1onc(-c2ccccc2)c1C(=O)Nc1nnc(N(C)Cc2ccccc2)s1` belongs 4.13%; to `CC1CCCN(C(=O)c2ccc3c(c2)OCCO3)C1` (stereo not drawn), 16.3%; to `COc1ccccc1Nc1nc(-c2cccnc2)cs1`, 0.499%.
The figure for `COc1ccc(OC)c(-n2c(=O)c3ccccc3c3ccccc3c2=O)c1` is 11.9%; for `COc1ccc(CNC(=O)c2ccc(N3CCCC3=O)cc2)cc1` it is 0.232%; for `CCCCN(C(=O)c1cccc(S(=O)(=O)N2CC(C)OC(C)C2)c1)c1c(N)n(CCCC)c(=O)[nH]c1=O` (stereo not drawn) it is 9.63%.
For the molecule `CC(=O)Nc1ccc2c(c1)nc(C)n2-c1ccccc1`, the “hERG current change (%, negative = inhibition) at 1uM” value stood at 14.5%.
To `Cc1ccc(C(=O)NN2CCOCC2)cc1` belongs 3.45%; to `C=C(C(=O)O)C1CCC2(C)CCCC(C)(O)C2C1` (stereo not drawn), 9.95%.
The figure for `Cc1ccnc(NS(=O)(=O)c2ccc(NS(C)(=O)=O)cc2)n1` is 13.5%; for `O=C(c1ccc(COc2ccccc2[N+](=O)[O-])o1)N1CCCCCC1` it is 8.59%.
The figure for `CCO[C@@H]1OC(C(=O)O)=C[C@H](c2coc3ccccc3c2=O)[C@H]1CCCO` is 20.9%; for `CCNS(=O)(=O)c1ccc(OC)c(C)c1` it is 17.5%; for `CCOC(=O)C1=C(c2ccccc2)OC(N)=C(C#N)C1C1CCCCC1` (stereo not drawn) it is 6.49%.
Consider `O=C(CSc1n[nH]c(=O)[nH]c1=O)c1ccccc1`, for which the “hERG current change (%, negative = inhibition) at 1uM” value came to 11.8%.
The figure for `COc1ccc(NC(=O)COc2coc(CN3CCCc4ccccc43)cc2=O)cc1` is -6.97%.
To `NC(=O)C1CCN(CC(=O)Nc2ccccc2C(=O)NC2CC2)CC1` belongs 10.7%.
